Some of the results follow. The full chains were built here from the parent and the listed change. Inactive controls read about 0.05.
B1: TEV protease; numbered along this chain (parent)
chain: MGESLFKGPRDYNPISSSICHLTNESDGHTTSLYGIGFGPFIITNKHLFRRNNGTLVVQSLHGVFKVKDTTTLQQHLVDGRDMIIIRMPKDFPPFPQKLKFREPQREERICLVTTNFQTKSMSSMVSDTSCTFPSGDGIFWKHWIQTKDGQCGSPLVSTRDGFIVGIHSASNFTNTNNYFTSVPKNFMELLTNQEAQQWVSGWRLNADSVLWGGHKVFMVKPEEPFQPVKEATQL

Variants of: B1
Test: raw area under fraction-flipped curve 0-4 h after induction (AUC4h, not background-subtracted), DNA-recorder readout of cleavage of the substrate (dimensionless); higher = more cleavage of the substrate by the protease variant
Details: temperature: 34 °C; time window: 0-4 h after rhamnose induction
Procedure: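 In vivo DNA recorder in E. coli TOP10(DE3) ΔrhaA at 34 °C. Each TEVp single-site mutant (parent TEVp 0) is paired with a single-site variant of the 7-mer TEVs (canonical ENLYFQ|S). The substrate sits between flexible linkers in a Bxb1-sfGFP-TEVs-SsrA fusion, so cleavage stabilises Bxb1 and speeds flipping of a recombination array, read by NGS. The value is the raw area under the fraction-flipped curve over 0-4 h after rhamnose induction (AUC4h), with ≥20 reads per time point. It is not background-subtracted; inactive controls average about 0.047.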
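Note: Bxb1 expression induced with 0.2% (w/v) L-rhamnose at OD600 near 0.5, cultures sampled hourly, flipped fraction per protease–substrate barcode pair counted by paired-end Illumina sequencing.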

Variant | area with substrate ENLYCQS | area with substrate ENLYDQS | area with substrate ENLYEQS | area with substrate ENLYHQS | area with substrate ENLYKQS | area with substrate ENLYLQS | area with substrate ENLYPQS | area with substrate ENLYRQS | area with substrate ENLYSQS | area with substrate ENLYVQS | area with substrate ENLYYQS | area with substrate ENLYIQS | area with substrate ENLYMQS | area with substrate ENLYNQS | area with substrate ENLYQQS | area with substrate ENLYTQS | area with substrate ENLYWQS | area with substrate ENLYGQS
MGESLFKGPRDYNPISSSICHLTNESDGHTTSLYGIGFGPFIITNKHLFRRNNGTLVVQSLHGVFKVKDTTTLQQHLVDGRDMIIIRMPKDFPPFPQKLKFREPQREERICLVTTNFQTKSMSSMVSDTSCTFPSGDGIFWKHWIQTKDGQCGSPLVSTRMGFIVGIHSASNFTNTNNYFTSVPKNFMELLTNQEAQQWVSGWRLNADSVLWGGHKVFMVKPEEPFQPVKEATQL [D161M] | 0.0618 | 0.0486 | 0.0698 | 0.0539 | 0.056 | 0.0547 | 0.044 | 0.061 | 0.038 | 0.0716 | 0.0232 |  |  |  |  |  |  | 
MGESLFKGPRDYNPISSSICHLTNESDGHTTSLYGIGFGPFIITNKHLFRRNNGTLVVQSLHGVFKVKDTTTLQQHLVDGRDMIIIRMPKDFPPFPQKLKFREPQREERICLVTTNFQTKSMSSMVSDTSCTFPSGDGIFWKHWIQTKDGQCGSPLVSTRDGFIVGIHPASNFTNTNNYFTSVPKNFMELLTNQEAQQWVSGWRLNADSVLWGGHKVFMVKPEEPFQPVKEATQL [S169P] | 0.059 | 0.0559 | 0.0628 | 0.0508 | 0.0624 |  | 0.0487 | 0.06 |  | 0.059 | 0.0653 | 0.0617 | 0.0617 | 0.0958 | 0.0479 | 0.0576 |  | 
MGESLFKGPRDYNPISSSICHLTNESDGHTTSLYGIGFGPFIITNKHLFRRNNGTLVVQSLHGVFKVKDTTTLQQHLVDGRDMIIIRMPKDFPPFPQKLKFREPQREERICLVTTNFQTKSMSSMVSDTSCTFPSGDGIFWKHWIQTKDGQCGSPLVSTRDGFIVGIHSASGFTNTNNYFTSVPKNFMELLTNQEAQQWVSGWRLNADSVLWGGHKVFMVKPEEPFQPVKEATQL [N172G] | 0.0756 |  | 0.0582 | 0.0672 |  | 0.0597 |  |  |  |  | 0.061 |  |  | 0.0545 |  |  | 0.0548 | 
MGESLFKGPRDYNPISSSICHLTNESDGHTTSLYGIGFGPFIITNKHLFRRNNGTLVVQSLHGVFKVKDTTTLQQHLVDGRDMIIIRMPKDFPPFPQKLKFREPQREERICLVTTNFQTKSMSSMVSDTSCTFPSGDGIFWKHWIQTKDGQCGSPLVSTRDGFIVGIHSASNFTHTNNYFTSVPKNFMELLTNQEAQQWVSGWRLNADSVLWGGHKVFMVKPEEPFQPVKEATQL [N175H] | 0.0746 |  | 0.0754 |  | 0.055 |  |  |  |  | 0.0868 | 0.0683 |  |  | 0.0781 |  |  | 0.059 | 
MGESLFKGPRDYNPISSSICHLTNESDGHTTSLYGIGFGPFIITNKHLFRRNNGTLVVQSLHGVFKVKDTTTLQQHLVDGRDMIIIRMPKDFPPFPQKLKFREPQREERICLVTTNFQTKSMSSMVSDTSCTFPSGDGIFWKHWIQTKDGQCGSPLVSTRDGFIVGIHSASNFTITNNYFTSVPKNFMELLTNQEAQQWVSGWRLNADSVLWGGHKVFMVKPEEPFQPVKEATQL [N175I] | 0.0742 |  | 0.0544 | 0.0567 |  | 0.0473 | 0.06 | 0.0652 | 0.0672 | 0.0571 | 0.0665 | 0.0612 | 0.0594 | 0.0593 | 0.0676 | 0.056 | 0.0702 | 0.0681
MGESLFKGPRDYNPISSSICHLTNESDGHTTSLYGIGFGPFIITNKHLFRRNNGTLVVQSLHGVFKVKDTTTLQQHLVDGRDMIIIRMPKDFPPFPQKLKFREPQREERICLVTTNFQTKSMSSMVSDTSCTFPSGDGIFWKHWIQTKDGQCGSPLVSTRDGFIVGIHSASNFTNTNNYFTPVPKNFMELLTNQEAQQWVSGWRLNADSVLWGGHKVFMVKPEEPFQPVKEATQL [S182P] | 0.104 | 0.0598 | 0.0557 | 0.0719 | 0.0745 | 0.0861 | 0.0697 | 0.0551 |  | 0.091 |  | 0.0805 | 0.0863 |  | 0.0572 |  | 0.0751 | 0.0662
MGESLFKGPRDYNPISSSICHLTNESDGHTTSLYGIGFGPFIITNKHLFRRNNGTLVVQSLHGVFKVKDTTTLQQHLVDGRDMIIIRMPKDFPPFPQKLKFREPQREERICLVTTNFQTKSMSSMVSDTSCTFPSGDGIFWKHWIQTKDGQCGSPLVSTRDGFIVGIHSASNFTNTNNYFTYVPKNFMELLTNQEAQQWVSGWRLNADSVLWGGHKVFMVKPEEPFQPVKEATQL [S182Y] | 0.102 | 0.0623 |  | 0.0503 | 0.0681 |  |  | 0.0481 | 0.0536 |  | 0.0395 | 0.0633 | 0.0513 | 0.0575 | 0.0559 |  | 0.042 | 
MGESLFKGPRDYNPISSSICHLTNESDGHTTSLYGIGFGPFIITNKHLFRRNNGTLVVQSLHGVFKVKDTTTLQQHLVDGRDMIIIRMPKDFPPFPQKLKFREPQREERICLVTTNFQTKSMSSMVSDTSCTFPSGDGIFWKHWIQTKDGQCGSPLVSTRDGFIVGIHSASNFTNTNNYFTSVPKNFMELLTNQEAQQWVSGMRLNADSVLWGGHKVFMVKPEEPFQPVKEATQL [W203M] | 0.0586 |  | 0.0635 | 0.0567 | 0.0571 |  |  |  |  | 0.0723 |  | 0.0683 |  | 0.0554 |  |  | 0.0547 | 0.0498
MGESLFKGPRDYNPISSSICHLTNESDGHTTSLYGIGFGPFIITNKHLFRRNNGTLVVQSLHGVFKVKDTTTLQQHLVDGRDMIIIRMPKDFPPFPQKLKFREPQREERICLVTTNFQTKSMSSMVSDTSCTFPSGDGIFWKHWIQTKDGQCGSPLVSTRDGFIVGIHSASNFTNTNNYFTSVPKNFMELLTNQEAQQWVSGWRLNWDSVLWGGHKVFMVKPEEPFQPVKEATQL [A207W] | 0.0721 | 0.0541 | 0.0481 | 0.0628 | 0.0472 |  |  | 0.0894 |  |  | 0.0587 | 0.0895 | 0.0813 | 0.0442 | 0.0654 |  |  | 0.0527
MGESLFKGPRDYNPISSSICHLTNESDGHTTSLYGIGFGPFIITNKHLFRRNNGTLVVQSLHGVFKVKDTTTLQQHLVDGRDMIIIRMPKDFPPFPQKLKFREPQREERICLVTTNFQTKSMSSMVSDTSCTFPSGDGIFWKHWIQTKDGQCGSPLVSTRDGFIVGIHSASNFTNTNNYFTSVPKNFMELLTNQEAQQWVSGWRLNADSVLWGRHKVFMVKPEEPFQPVKEATQL [G214R] | 0.0634 | 0.0656 | 0.0487 | 0.0635 | 0.0445 | 0.0523 | 0.069 | 0.0601 | 0.0572 | 0.0843 | 0.0687 | 0.0681 | 0.0567 | 0.0628 | 0.0647 | 0.097 | 0.0595 | 0.061

Source: the supplement of paper PMC12217912
